# Test results published in PubChem BioAssay AID624418 (National Center for Advancing Translational Sciences (NCATS), 2012).
# Where “and” joins values, the source holds several entries; their conditions need not be identical. Identical values can stand only once. The campaign covered roughly 410,000 compounds. About 530 (0.13%) were called active. The inconclusive results got no clear call from the source; some entries with a clear call stand among them for comparison. Calls come from the whole dose curve; as a rule, active = well fitted inhibition curve with a large enough effect; inconclusive = small, poorly fitted or top-dose-only effect, or another doubt; inactive = no such curve, though single readings can be large or run the other way. Potencies beside an inconclusive call are fits to weak or partial responses and may not hold up.
# Test: qHTS of GLP-1 Receptor Inverse Agonists: Cytotox Screen
# Conditions: HEK293 cAMP-luciferase reporter cells, luminescence, 24 h; series mostly up to 38.3 µM
# Method in brief: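 Luminescence readout: signal drop marks cytotoxicity. Plated cells grew 12 h at 37 °C, 5% CO2, received 23 nL compound for 24 h, then got luciferase reagent, read after 12 min at RT.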
# Potency is the fitted concentration of half-maximal effect.
row,Compound,Potency
1,c1ccc(-c2nc(N3CCCCCC3)c3ccccc3n2)nc1,"inconclusive: 0.562 µM [inhibitor, full curve, poor fit]"
2,COc1ccc(S(=O)(=O)N2CCN(C(=O)c3ccc([N+](=O)[O-])o3)CC2)cc1,"inconclusive: 0.501 µM [inhibitor, full curve, poor fit]"
3,C=CCn1c(=NC(=O)c2ccc(S(=O)(=O)N3CCc4ccccc4C3)cc2)sc2cc(S(N)(=O)=O)ccc21,"inconclusive: 10 µM [inhibitor, single point]"
4,CC(C(=O)Nc1ccc2c(c1)OCO2)N(c1ccc(Cl)cc1)S(C)(=O)=O (stereo unspecified),inactive
5,Cc1cccc(NC(=O)CSc2nc(COc3ccccc3)nc3ccccc23)c1C,"inconclusive: 4.47 µM [inhibitor, partial curve, poor fit]"
6,O=C(Nc1cc(S(=O)(=O)N2CCCCC2)ccc1O)c1ccccc1NS(=O)(=O)c1ccc(F)cc1,"inconclusive: 8.91 µM [inhibitor, partial curve, poor fit] and inconclusive: 28.2 µM [inhibitor, single point]"
7,COCc1cc(CN2CCCC2)c(O)c2ncccc12,"inconclusive: 28.2 µM [inhibitor, single point]"
8,O=C(NC(=S)N1CCN(c2ccccc2)CC1)c1ccco1,"inconclusive: 14.1 µM [inhibitor, single point]"
9,CC(C)(C)C(=O)/C=c1\s/c(=C\c2ccc(-c3ccc([N+](=O)[O-])cc3)o2)c(=O)n1CC(=O)NC(N)=O,inactive
10,Cn1c(N)c(C(C[N+](=O)[O-])c2c(F)cccc2Cl)c(=O)n(C)c1=O (stereo unspecified),"inconclusive: 28.2 µM [inhibitor, single point]"
11,CN1CCN(C(=O)CCN2C(=O)/C(=C/c3ccc(F)cc3)SC2=S)CC1,"inconclusive: 3.55 µM [inhibitor, full curve]"
12,C/C(=N\Nc1nccnc1Cl)c1ccc(O)cc1,"inconclusive: 10 µM [inhibitor, single point]"
13,CCCCN(CCCC)C(=O)CN(C)S(=O)(=O)c1ccc2c(c1)c(=O)n(C)c(=O)n2C,inactive
14,O=C(Nc1ccccc1)Nc1ncc([N+](=O)[O-])s1,"inconclusive: 28.2 µM [inhibitor, single point]"
15,CCN(CC)S(=O)(=O)c1ccc(OC)c(NC(=O)C(C)Oc2ccc3c(C)cc(=O)oc3c2)c1 (stereo unspecified),"inconclusive: 14.1 µM [inhibitor, single point]"
16,COc1ccc2oc(=O)cc(CN3CCN(c4ccc(F)cc4)CC3)c2c1,inactive
17,OCC1(Cc2ccc(Cl)cc2)CCN(Cc2ccc(Oc3ncccn3)cc2)CC1,inactive
18,CCCCCCCCNS(=O)(=O)CCNCCCC,inactive
19,COc1ccc(CCC(=O)NC2CC(=O)N(c3ccc(C)cc3)C2)cc1 (stereo unspecified),inactive
20,Cc1[nH]n(-c2ccccc2)c(=O)c1/C=C1\C=NN=C1c1ccccc1,"inconclusive: 5.62 µM [inhibitor, partial curve, poor fit]"
21,O=C(NCc1cc([N+](=O)[O-])ccc1O)c1cccnc1Sc1ccccc1Cl,"inconclusive: 3.55 µM [inhibitor, partial curve, poor fit]"

row,Compound,Potency
1,CC(=O)Nc1cccc(Nc2nc(-c3ccccc3F)nc3ccccc23)c1,"inconclusive: 22.4 µM [inhibitor, single point]"
2,CCOc1ccc(NC(=O)CN2CCN(CC(=O)Nc3ccc(Cl)c(C(F)(F)F)c3)CC2)cc1,"inconclusive: 10 µM [inhibitor, partial curve, poor fit]"
3,CCOC(=O)[C@H]1[C@H]2COc3ccc(Cl)cc3[C@@H]2N2C(=O)[C@@H](CO)NC(=O)[C@@]12C,"inconclusive: 0.501 µM [inhibitor, full curve, poor fit]"
4,O=C(Cc1ccccc1)Nc1sc2c(c1C(=O)Nc1ccccc1Cl)CCC2,inactive
5,S=C(Nc1ccc(Oc2ccccc2)cc1)N(CCCN1CCOCC1)Cc1ccccn1,inactive
6,COc1ccc(CC2S/C(=N/N=C/c3ccccc3O)NC2=O)cc1 (stereo unspecified),"inconclusive: 0.501 µM [inhibitor, full curve, poor fit]"
7,O=S(=O)(c1ccccc1)c1nnn2c1nc(NCc1cccs1)c1sccc12,inactive
8,CN1CCN(c2nc(N3CCN(CCO)CC3)nc3ccccc23)CC1,"inconclusive: 28.2 µM [inhibitor, single point]"
9,CC1=NN(c2ccc(Cl)cc2)C(=O)/C1=C\c1cccn1-c1ccc(S(N)(=O)=O)cc1,"inconclusive: 10 µM [inhibitor, single point]"
10,CCCCCOC(=O)Cc1c(O)c2ccccc2n(C)c1=O,"inconclusive: 14.1 µM [inhibitor, single point]"
11,CC(C)(C)c1ccc(OCCCNCc2ccccc2)cc1,"inconclusive: 28.2 µM [inhibitor, single point]"
12,COc1cccc(-c2nc(SCC(=O)Nc3ccc4c(c3)OCO4)c(-c3ccccc3)[nH]2)c1,"inconclusive: 28.2 µM [inhibitor, single point]"
13,Cc1nc2c(cnn2-c2ccccc2Cl)c(=O)n1-c1ccc(C(C)C)cc1,"inconclusive: 1 µM [inhibitor, full curve, poor fit]"
14,Cc1cc(N/N=C/c2cccc([N+](=O)[O-])c2)nc(-n2nc(C)cc2C)n1,"inconclusive: 1 µM [inhibitor, full curve, poor fit]"
15,Cc1ccc(C(=O)N2[C@@H]3CN(C)C(=O)[C@@]2(Cc2ccccc2)[C@H]2C(=O)N(C)C(=O)[C@@H]32)cc1,"inconclusive: 0.501 µM [inhibitor, full curve, poor fit]"
16,COc1cc(C)c(C(=O)CC(=O)c2c(C)cc(OC)cc2C)c(C)c1,inactive
17,CCSC(=O)N=Nc1ccc(O)cc1,"inconclusive: 10 µM [inhibitor, single point]"
18,COc1cc(C(=O)NCCC(=O)NC(C)C)cc(OC)c1OC,inactive
19,CCc1nc2sc3ccccc3c(=O)c2c(=O)n1Cc1ccco1,inactive
20,c1ccc(Nc2nc(NCc3ccco3)c3ccccc3n2)cc1,"inconclusive: 28.2 µM [inhibitor, single point]"
